In PubChem BioAssay AID651820 (National Center for Advancing Translational Sciences (NCATS), 2012):
In all, about 340,000 compounds went through this assay and about 12,000 (3.5%) were called active. This list was built around the results that the source calls inconclusive (neither active nor inactive); the mix of calls is not that of the screen. Calls come from the whole dose curve; as a rule, active = well fitted inhibition curve with a large enough effect; inconclusive = small, poorly fitted or top-dose-only effect, or another doubt; inactive = no such curve, though single readings can be large or run the other way. Potencies of inconclusive entries are left out as doubtful fits.

Test: qHTS Assay for Inhibitors of Hepatitis C Virus (HCV)
Conditions: Huh7.5.1 HCVcc-Cre (HCVcc is cell-culture hepatitis C virus) infection, luciferase reporter, 44 h; activity change, negative = inhibition: at 41.8 µM (top of the series) unless noted
Method in brief: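 Luciferase read-out (15 sec integration) after a 15 min room-temperature substrate step quantifies HCVcc-Cre infection. Cells, 1,000 per well, had compound added 4 h post-plating, then virus at ~0.5 moi, and were cultured 44 h.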
% is set by controls: 0 for no effect and ±100 for the full control effect; potency is the fitted concentration of half-maximal effect; tags give direction and shape of the fitted curve.

**Q.** For CCOC(=O)C1=C(c2ccccc2)c2ccccc2N(S(=O)(=O)C(F)(F)F)C1C(=O)OCC (stereo not drawn), which Potency is on record?
**A.** active: 2.82 µM

**Q.** With CC(C)CSc1nc(N2CCOCC2)c2c(c1C#N)CC(C)(C)SC2 as the compound, how does the Potency read?
**A.** inactive

**Q.** Which Potency does the source give for Cc1ccc(CNC(=O)C2CC(c3ccccc3[N+](=O)[O-])=NO2)o1 (stereo not drawn) here?
**A.** inconclusive [inhibitor, single point]

**Q.** Which Potency does the source give for N#Cc1ccccc1NC(=O)Nc1ccc(Cl)cc1 here?
**A.** inactive

**Q.** For COc1ccccc1/C=N/NC(=O)c1cc2c(ccc3ccccc32)o1, which Potency is on record?
**A.** inactive

**Q.** Which Potency does the source give for C/C=C(\C)C(=O)O[C@H](c1cc2ccc(=O)oc2cc1OC)[C@@H](O)C(C)(C)O here?
**A.** inactive

**Q.** Which Potency does the source give for Cc1nn(Cc2ccccc2)c(C)c1NC(=O)CCCn1nc([N+](=O)[O-])c(Cl)c1C here?
**A.** inactive

**Q.** For C=CCn1c(O)c(C(CC)=Nc2ccc(N(C)C)cc2)c(=O)[nH]c1=O, which activity change, negative = inhibition is on record?
**A.** inconclusive: -36.6% [inhibitor]

**Q.** Which Potency does the source give for CC1(C)CC(=O)C2=C(C1)Oc1ncn(CCCn3ccnc3)c(=N)c1C2c1ccccc1 (stereo not drawn) here?
**A.** inconclusive [inhibitor, single point]

**Q.** Which Potency does the source give for Cc1cc(C(=O)N2CCN(c3ccc([N+](=O)[O-])cc3)CC2)n[nH]1 here?
**A.** inconclusive [inhibitor, single point]

**Q.** With COc1ccc(OC)c(C2=NOC(C(=O)NCc3cccnc3)C2)c1 (stereo not drawn) as the compound, how does the Potency read?
**A.** inconclusive [inhibitor, single point]

**Q.** With COc1ccccc1C(=O)Nc1ccc(N2CCN(Cc3ccccc3)CC2)cc1 as the compound, how does the Potency read?
**A.** inconclusive [inhibitor, partial curve, poor fit]

**Q.** Which Potency does the source give for CCN(c1cccc(C)c1)S(=O)(=O)c1cc2c3c(c1)CCC(=O)N3CCC2 here?
**A.** inconclusive [inhibitor, single point]

**Q.** With C=CCNC(=S)Nc1sc2c(c1C(=O)OCC)CCN(C(=O)OCC)C2 as the compound, how does the Potency read?
**A.** inactive

**Q.** Which Potency does the source give for COc1ccc(CNC(=O)CN2CCN(S(=O)(=O)c3c(C)c(C)cc(C)c3C)CC2)cc1OC here?
**A.** inconclusive [inhibitor, partial curve]

**Q.** Which Potency does the source give for Cc1cc(N2CCCC2)nc2ccc(NC(=S)NCCCN3CCC(C)CC3)cc12 here?
**A.** active: 10 µM

**Q.** With COc1ccc(NC(=O)CN2CCN(Cc3ccc4c(c3)OCO4)CC2)cc1OC as the compound, how does the Potency read?
**A.** inactive

**Q.** With Cc1cc(NC(=O)CSc2nc3c(cc2C#N)CCCC3)no1 as the compound, how does the Potency read?
**A.** inactive

**Q.** With CN(C)C(=O)c1ccc(NC(=O)COc2cccc3c2OC(C)(C)C3)cc1 as the compound, how does the Potency read?
**A.** inconclusive [inhibitor, partial curve]

**Q.** With COc1cccc(CN2CC(C(=O)N3CCCCCCC3)CCC2=O)c1 (stereo not drawn) as the compound, how does the Potency read?
**A.** inactive

**Q.** For O=S(=O)(NCCc1csc(-c2cccnc2)n1)c1ccc(Cl)s1, which Potency is on record?
**A.** inconclusive [inhibitor, single point]

**Q.** With CCc1ccc(N(CC(=O)Nc2nc3ccc(C)cc3s2)S(=O)(=O)c2c(C)noc2C)cc1 as the compound, how does the Potency read?
**A.** inconclusive [inhibitor, single point]

**Q.** For O=C(N/N=C/c1ccc[nH]1)c1ccc([N+](=O)[O-])cc1, which Potency is on record?
**A.** inconclusive [inhibitor, single point]

**Q.** For COc1ccc(S(=O)(=O)N2CCCCCC2)cc1C(=O)N(C)CCOc1ccc(Cl)cc1, which Potency is on record?
**A.** inconclusive [inhibitor, partial curve]

**Q.** Which Potency does the source give for O=C1N/C(=C/c2cccs2)C(=O)N1Cc1ccc(F)cc1 here?
**A.** inconclusive [inhibitor, single point]

**Q.** With O=C(NCC(c1ccco1)N1CCCCC1)c1ccc(S(=O)(=O)Nc2ccccc2)cc1 (stereo not drawn) as the compound, how does the activity change, negative = inhibition read?
**A.** inconclusive: -47.2% [inhibitor]

**Q.** Which Potency does the source give for CC[C@H](C)[C@@H](C(=O)NCCCCCCCCCCC(=O)N1CCN(C(=O)OC(C)(C)C)CC1)n1cc(CCCCCNC(=O)OC(C)(C)C)nn1 here?
**A.** inconclusive [inhibitor, single point]

**Q.** Which Potency does the source give for CCCCCCCN1C/C=C\C(c2ccc(OC)cc2)N(Cc2ccc(F)cc2)C(=O)[C@H]1Cc1ccccc1 (stereo partly drawn) here?
**A.** inactive

**Q.** With CNC(=S)N1N=C(c2ccccc2)CC1c1ccc(Br)cc1 (stereo not drawn) as the compound, how does the Potency read?
**A.** inconclusive [inhibitor, single point]

**Q.** For COc1ccc(S(=O)(=O)N2CCN(CCC(=O)Nc3ccc(F)cc3)CC2)cc1, which Potency is on record?
**A.** inconclusive [inhibitor, single point]

**Q.** Which Potency does the source give for COc1cc2ccccc2cc1C(=O)Nc1ccc(N2CCN(C)CC2)cc1 here?
**A.** active: 12.6 µM

**Q.** Which Potency does the source give for Cc1ccc(NP(=O)(c2ccc(N(C)C)cc2NC(=O)c2cccs2)N2CCOCC2)cc1 (stereo not drawn) here?
**A.** inconclusive [inhibitor, single point]

**Q.** For CCN1CCN(C(=O)CN(C)S(=O)(=O)c2ccc(OC)c(C)c2)CC1, which Potency is on record?
**A.** inactive

**Q.** Which Potency does the source give for CCc1noc(C)c1C(=O)OCC(=O)NC(=O)c1ccccc1 here?
**A.** inactive

**Q.** With O=C(Nc1nc(-c2ccncc2)cs1)C1COc2ccccc2O1 (stereo not drawn) as the compound, how does the Potency read?
**A.** inactive

**Q.** Which Potency does the source give for CC(C)N(Cc1nc(-c2ccccc2)no1)C(=O)C(Cl)(Cl)Cl here?
**A.** inconclusive [inhibitor, single point]

**Q.** With COc1ccc(NS(=O)(=O)c2cccc(C(=O)NNC(=O)CNC(=O)c3ccccc3F)c2)cc1 as the compound, how does the Potency read?
**A.** inconclusive [inhibitor, single point]

**Q.** With CN1CCC(NC(=O)c2cc(-c3cccc(Br)c3)nc3ccccc23)CC1 as the compound, how does the Potency read?
**A.** active: 11.2 µM

**Q.** Which Potency does the source give for O=C(Nc1ccc(N2CCN(C(=O)c3ccc(Cl)cc3)CC2)cc1)c1ccc([N+](=O)[O-])o1 here?
**A.** active: 10 µM

**Q.** Which Potency does the source give for CCOC(=O)C1=C(C)N(C[C@@H]2CC[C@@H](Cc3ccc4cc(OC)ccc4c3)O2)C(=O)NC1c1ccccc1 (stereo partly drawn) here?
**A.** inconclusive [inhibitor, single point]

**Q.** Which Potency does the source give for COc1cccc2c3c(c(=O)[nH]c12)CCC(C)(C)O3 here?
**A.** inconclusive [inhibitor, full curve, poor fit]

**Q.** Which Potency does the source give for O=C(CCCN1C(=O)/C(=C\c2ccco2)SC1=S)Nc1ccc2ccccc2c1 here?
**A.** inconclusive [inhibitor, full curve, poor fit]

**Q.** Which Potency does the source give for COc1ccc(-n2nnnc2SCC(=O)c2ccc(OC)c(OC)c2)cc1 here?
**A.** inconclusive [inhibitor, single point]

**Q.** For CCCc1nc2sc3ccccc3c(=O)c2c(=O)n1Cc1ccc(OC)cc1, which Potency is on record?
**A.** inconclusive [inhibitor, single point]

**Q.** With Cc1nnc(N2CCCC(C(=O)Nc3cc(F)ccc3F)C2)c2nn(-c3ccccc3)c(C)c12 (stereo not drawn) as the compound, how does the Potency read?
**A.** active: 11.2 µM

**Q.** Which Potency does the source give for O=C(CN1CCN(S(=O)(=O)c2ccccc2F)CC1)Nc1ccccc1C(=O)c1ccccc1 here?
**A.** inconclusive [inhibitor, partial curve]

**Q.** Which Potency does the source give for Cc1nc2cc(C(F)(F)F)ccc2n1C1CCN(Cc2nnnn2CCc2ccccc2)CC1 here?
**A.** inactive

**Q.** With CCOC(=O)C1(Cc2cccc(OC)c2)CCN(C(C)CC(C)(C)O)CC1 (stereo not drawn) as the compound, how does the Potency read?
**A.** inactive

**Q.** With Cc1cccc(N2CCN(S(=O)(=O)c3ccc4c(c3)C(C)(C)C(=O)N4C)CC2C)c1 (stereo not drawn) as the compound, how does the Potency read?
**A.** inconclusive [inhibitor, single point]

**Q.** With COc1cccc(CN(C)CC(=O)Nc2cccc(S(=O)(=O)N(C)c3ccccc3)c2)c1OC as the compound, how does the Potency read?
**A.** inconclusive [inhibitor, single point]

**Q.** Which Potency does the source give for CC1CN(C(=O)COC(=O)/C=C/c2ccc(C(F)(F)F)cc2)CC(C)O1 (stereo not drawn) here?
**A.** inconclusive [inhibitor, partial curve]

**Q.** With CC(C)(/C=N/O)N(O)C=C1C=CC(=O)C=C1 as the compound, how does the Potency read?
**A.** inactive

**Q.** With CNc1nnc(-c2ccc(C)cc2)c2ccccc12 as the compound, how does the Potency read?
**A.** inconclusive [inhibitor, single point]

**Q.** With Cc1ccc(NC(=O)C/C(N)=N/OC(=O)Nc2ccc(C)c(Cl)c2)cc1 as the compound, how does the Potency read?
**A.** inactive

**Q.** Which Potency does the source give for CCCOc1c(Cl)cc(/C=N/O)cc1OCC here?
**A.** inconclusive [inhibitor, single point]

**Q.** For Cc1c(NC(=O)c2cccs2)cccc1[N+](=O)[O-], which Potency is on record?
**A.** inactive

**Q.** For Cc1cc(-n2c(C)cc(C(=O)CN3C(=O)NC4(CCCCC4C)C3=O)c2C)no1 (stereo not drawn), which Potency is on record?
**A.** inconclusive [inhibitor, partial curve]

**Q.** Which activity change, negative = inhibition does the source give for CC(=O)NCc1ccc(S(=O)(=O)N/N=C/c2ccc(Br)cc2)cc1 here?
**A.** inconclusive: -31.9% [inhibitor]

**Q.** Which Potency does the source give for CC1=CC(C)(C)N(C(=O)c2ccccc2)c2ccc(C)cc21 here?
**A.** inconclusive [inhibitor, partial curve]

**Q.** For CSc1ccc(S(=O)(=O)NCc2ccc(Cl)cc2Cl)cc1, which Potency is on record?
**A.** inactive

**Q.** With O=C(NCCc1ccc(F)cc1)c1ccc([N+](=O)[O-])cc1 as the compound, how does the Potency read?
**A.** inactive

**Q.** With COc1ccc(-c2noc3c2-c2nc(-c4ccccc4C)sc2CC3)cc1 as the compound, how does the Potency read?
**A.** inconclusive [inhibitor, full curve]

**Q.** Which Potency does the source give for O=C(Nc1cccc(C(F)(F)F)c1)c1ccc2nc(-c3ccco3)c(-c3ccco3)nc2c1 here?
**A.** inconclusive [inhibitor, partial curve, poor fit]

**Q.** With COc1ccc(OC)c(Nc2nc(NCCO)c3ccccc3n2)c1 as the compound, how does the Potency read?
**A.** inconclusive [inhibitor, partial curve]

**Q.** For Cc1ccc(S(=O)(=O)NCCCNc2ccc([N+](=O)[O-])cc2)cc1, which Potency is on record?
**A.** inconclusive [inhibitor, single point]

**Q.** For CC(=O)N1CCOCCOCCN(C(C)=O)CCOCCOCC1, which Potency is on record?
**A.** inactive

**Q.** With COc1ccc(-c2ccc(-c3nc4c(c(=O)[nH]c(=O)n4Cc4ccccc4)n3C)o2)c([N+](=O)[O-])c1 as the compound, how does the Potency read?
**A.** inconclusive [inhibitor, partial curve, poor fit]

**Q.** Which Potency does the source give for Cn1c(=O)c2c(nc(N3CCc4ccccc4C3)n2Cc2ccccc2F)n(C)c1=O here?
**A.** inconclusive [inhibitor, single point]
